This note sets out measurements from patent US20100260668A1 (published 2010).

The target in one assay is T1, PlGF (UniProt P49763-2 21-149, limits assumed).
T1 construct: bought antigen coated on the ELISA plate; also called Placental GF
T1 sequence (looked up): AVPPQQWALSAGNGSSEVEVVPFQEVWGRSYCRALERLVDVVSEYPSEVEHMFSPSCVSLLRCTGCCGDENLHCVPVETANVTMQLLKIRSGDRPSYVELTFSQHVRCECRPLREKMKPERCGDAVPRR
Put plainly: direct bind ELISA, C-terminal VD. A general note: An ELISA detects its analyte on a solid surface through an enzyme-linked reagent.

Assay [1] has as its target T2, ErbB3 (ErbB3 ECD/FC Chimera-His tag, R&D 348-RB-050) (UniProt P21860 part only, limits assumed).
T2 construct: extracellular domain; Bought antigen coated on the ELISA plate
Put plainly: direct bind ELISA, coated antigen; C-terminal VD of DVD-Ig.

B1: DVD548 (bispecific antibody, human IgG1, kappa)
heavy: [omitted - about 120 residues]ASTKGPQVQLKQSGPGLVQPSQSLSITCTVSGFSLTTYGIHWVRQSPGKGLEWLGVMWSGGDTDYDAAFISRLSISKDNSKSQVFFKMNSLQANDTGIYYCARYRFYGMDYWGQGTSVTVSS[omitted - human IgG1 constant region]
light: [omitted - about 100 residues]RTVAAPAIQMTQSSSSFSVSLGDRVTITCKASEDIYNRFAWYQQKPGNAPRLLISGAASLEAGVPSRFSGSGSGQDYTLSITSLQTEDVATYYCQQYWSTPWTFGGGTKLEIKRTVAAPSVFIFPPSDEQLKSGTASVVCLLNNFYPREAKVQWKVDNALQSGNSQESVTEQDSKDSTYSLSSTLTLSKADYEKHKVYACEVTHQGLSSPVTKSFNRGEC
notes: HC linker short, LC linker short; also called DVD-Ig DVD548
One may read the EC50 as the concentration giving half of the maximal effect. A high value points to lower potency in that assay. Regarding B1, in the assay with PlGF, a half-maximal response (EC50) required 7.42 nM.

B2: DVD412 (bispecific antibody, human IgG1, lambda)
heavy: [omitted - about 120 residues]ASTKGPEVQLLESGGGLVQPGGSLRLSCAASGFTFSHYVMAWVRQAPGKGLEWVSSISSSGGWTLYADSVKGRFTISRDNSKNTLYLQMNSLRAEDTAVYYCTRGLKMATIFDYWGQGTLVTVSS[omitted - human IgG1 constant region]
light: [omitted - about 100 residues]RTVAAPQSALTQPASVSGSPGQSITISCTGTSSDVGSYNVVSWYQQHPGKAPKLIIYEVSQRPSGVSNRFSGSKSGNTASLTISGLQTEDEADYYCCSYAGSSIFVIFGGGTKVTVLGQPKAAPSVTLFPPSSEELQANKATLVCLISDFYPGAVTVAWKADSSPVKAGVETTTPSKQSNNKYAASSYLSLTPEQWKSHRSYSCQVTHEGSTVEKTVAPTECS
notes: DVD-Ig; HC linker short, LC linker short; also called DVD412H; DVD412L
For B2, in assay [1], the response was half-maximal at 206 nM (EC50).

B3: DVD424 (bispecific antibody, human IgG1, kappa, lambda)
heavy: [omitted - about 120 residues]ASTKGPEVQLLESGGGLVQPGGSLRLSCAASGFTFSHYVMAWVRQAPGKGLEWVSSISSSGGWTLYADSVKGRFTISRDNSKNTLYLQMNSLRAEDTAVYYCTRGLKMATIFDYWGQGTLVTVSS[omitted - human IgG1 constant region]
light: [omitted - about 100 residues]RTVAAPSVFIFPPQSALTQPASVSGSPGQSITISCTGTSSDVGSYNVVSWYQQHPGKAPKLIIYEVSQRPSGVSNRFSGSKSGNTASLTISGLQTEDEADYYCCSYAGSSIFVIFGGGTKVTVLGQPKAAPSVTLFPPSSEELQANKATLVCLISDFYPGAVTVAWKADSSPVKAGVETTTPSKQSNNKYAASSYLSLTPEQWKSHRSYSCQVTHEGSTVEKTVAPTECS
notes: DVD-Ig; HC linker short, LC linker long; also called DVD424H; DVD424L
B3 showed an EC50 in assay [1] of 40.7 nM.

B4: DVD420 (bispecific antibody, human IgG1, lambda)
heavy: [omitted - about 120 residues]ASTKGPSVFPLAPEVQLLESGGGLVQPGGSLRLSCAASGFTFSHYVMAWVRQAPGKGLEWVSSISSSGGWTLYADSVKGRFTISRDNSKNTLYLQMNSLRAEDTAVYYCTRGLKMATIFDYWGQGTLVTVSS[omitted - human IgG1 constant region]
light: [omitted - about 100 residues]RTVAAPQSALTQPASVSGSPGQSITISCTGTSSDVGSYNVVSWYQQHPGKAPKLIIYEVSQRPSGVSNRFSGSKSGNTASLTISGLQTEDEADYYCCSYAGSSIFVIFGGGTKVTVLGQPKAAPSVTLFPPSSEELQANKATLVCLISDFYPGAVTVAWKADSSPVKAGVETTTPSKQSNNKYAASSYLSLTPEQWKSHRSYSCQVTHEGSTVEKTVAPTECS
notes: DVD-Ig; HC linker long, LC linker short; also called DVD420H; DVD420L
Regarding B4, in assay [1], it took 144 nM to reach a half-maximal effect (EC50).

B5: DVD416 (bispecific antibody, human IgG1, kappa, lambda)
heavy: [omitted - about 120 residues]ASTKGPSVFPLAPEVQLLESGGGLVQPGGSLRLSCAASGFTFSHYVMAWVRQAPGKGLEWVSSISSSGGWTLYADSVKGRFTISRDNSKNTLYLQMNSLRAEDTAVYYCTRGLKMATIFDYWGQGTLVTVSS[omitted - human IgG1 constant region]
light: [omitted - about 100 residues]RTVAAPSVFIFPPQSALTQPASVSGSPGQSITISCTGTSSDVGSYNVVSWYQQHPGKAPKLIIYEVSQRPSGVSNRFSGSKSGNTASLTISGLQTEDEADYYCCSYAGSSIFVIFGGGTKVTVLGQPKAAPSVTLFPPSSEELQANKATLVCLISDFYPGAVTVAWKADSSPVKAGVETTTPSKQSNNKYAASSYLSLTPEQWKSHRSYSCQVTHEGSTVEKTVAPTECS
notes: DVD-Ig; HC linker long, LC linker long; also called DVD416H; DVD416L
Consider B5, for which the EC50 in assay [1] is 64.4 nM.
